# Hit rate of the full screen: of about 71,000 compounds, about 1,400 (2%) were called active. Inconclusive results, whose numbers are uncertain, are shown with a selection of clear calls. The call rests on the fitted dose curve; in most records, active means well fitted curve in the direction sought with a large enough effect; inconclusive means small, poorly fitted or top-dose-only effect; inactive means no such curve, though single readings can be large or run the other way. Where the call is inconclusive, the potency comes from a doubtful curve fit.
# Molecular target: Microtubule-associated protein tau (Homo sapiens) (UniProt P10636)
# Chain of UniProt P10636 (P10636 whole entry, looked up): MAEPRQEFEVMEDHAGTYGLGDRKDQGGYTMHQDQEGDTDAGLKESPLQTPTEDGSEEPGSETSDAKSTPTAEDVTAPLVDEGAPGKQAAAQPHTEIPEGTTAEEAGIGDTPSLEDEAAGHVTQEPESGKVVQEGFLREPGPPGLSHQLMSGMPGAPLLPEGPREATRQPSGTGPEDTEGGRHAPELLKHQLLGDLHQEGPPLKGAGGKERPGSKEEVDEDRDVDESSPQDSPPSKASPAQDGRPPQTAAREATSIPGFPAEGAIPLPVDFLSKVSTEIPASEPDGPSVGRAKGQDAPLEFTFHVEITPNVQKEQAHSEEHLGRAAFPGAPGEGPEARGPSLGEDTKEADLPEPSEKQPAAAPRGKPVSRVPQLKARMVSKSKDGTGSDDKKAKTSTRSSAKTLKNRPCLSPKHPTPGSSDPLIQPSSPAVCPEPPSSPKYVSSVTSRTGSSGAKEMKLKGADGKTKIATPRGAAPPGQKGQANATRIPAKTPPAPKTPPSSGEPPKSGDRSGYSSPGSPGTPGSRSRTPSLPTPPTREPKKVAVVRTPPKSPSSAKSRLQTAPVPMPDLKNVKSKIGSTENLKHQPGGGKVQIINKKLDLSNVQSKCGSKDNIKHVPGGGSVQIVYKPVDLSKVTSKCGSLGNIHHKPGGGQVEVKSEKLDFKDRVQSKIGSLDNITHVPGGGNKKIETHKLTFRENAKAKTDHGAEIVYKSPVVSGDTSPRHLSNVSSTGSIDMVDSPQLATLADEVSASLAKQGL
# Assay: qHTS Assay for Tau Filament Binding;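 further: actives lower thioflavin S fluorescence by blocking filaments or displacing dye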
# Conditions: recombinant tau filaments, thioflavin S fluorescence, 15 h, filaments grown with octadecylsulfate alongside compound; series mostly up to 57.1 µM
# Summary of the method: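 ThS-based fibril read: tau 1 uM final, inducer ODS 30 uM final, 37 C for 15 h, ex 450/em 510 nm.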
# On the % scale 0 is the no-effect control and ±100 the full control effect; potency means the concentration at half of the fitted maximal effect.
Compound,Potency,"activity change, negative = inhibition"
S=C(c1ccc(-c2ccc(Cl)c(Cl)c2)o1)N1CCOCC1,active: 10 µM,
CCOC(=O)N1CCN(c2nc(-c3ccco3)cc(C(F)(F)F)n2)CC1,inconclusive: 39.8 µM [decreasing],
COc1cccc(-c2cncnc2NCc2cccnc2)c1,inactive,
O=C(NC1CCCC1)C(c1ccsc1)N(Cc1ccco1)C(=O)Cc1cccs1 (stereo not given),active: 15.8 µM,
CSc1nc(-c2ccccc2)nc(SC)c1C(C)=O,inconclusive: 25.1 µM [decreasing],
CCCCCCCC(=O)O[C@H](CC(=O)O)C[N+](C)(C)C,inconclusive: 39.8 µM [decreasing],
CCOc1ccc(NC2c3ccccc3C(=O)N2Cc2ccco2)cc1 (stereo not given),active: 15.8 µM,
CCCc1cc(-c2[nH]ncc2-c2ccc3c(c2)OCCCO3)c(O)cc1O,inconclusive: 12.6 µM [decreasing],
OC[C@H]1NC[C@@H](O)[C@@H](O)[C@H]1O,inconclusive: 39.8 µM [decreasing],
CC(N)=NCc1cccc(CN)c1,inconclusive: 39.8 µM [decreasing],
O=C(Nc1ccc(N2CCOCC2)cc1)c1cnsn1,inconclusive: 31.6 µM [decreasing],
CCCCCCn1cnc2c(c1=O)c1nc3ccccc3nc1n2/N=C/c1ccco1,inconclusive: 2.51 µM [decreasing],
O=C(Nc1nccs1)c1ccc(NC(=O)c2ccco2)cc1,inconclusive: 3.98 µM [decreasing],
N=c1c(C(=O)NCc2ccc(F)cc2)cc2c(=O)n3ccccc3nc2n1Cc1ccco1,inconclusive: 6.31 µM [decreasing],
CC(C)(C)c1ccc(-c2nnc3sc(-c4ccccn4)nn23)cc1,inconclusive: 3.98 µM [decreasing],
Cc1ccc(-c2cc(C(=O)N3CCCC3)no2)cc1,inactive,
Cc1ccc(NC(=O)CN2CCCCCC2)c(Br)c1,inconclusive: 25.1 µM [decreasing],
C/C(=N\O)C(=O)OC1CC(C)CCC1C(C)C (stereo not given),inconclusive: 25.1 µM [decreasing],
N#Cc1c(N)n[nH]c1-c1cc2c([nH]1)CCCC2,inactive,
O=C(O)/C=C\C(=O)Nc1ncn[nH]1,,inactive: 5.8% [at 11.4 µM]
O=C1C2C3C=CC(C3)C2C(=O)N1CNc1ccc(O)cc1 (stereo not given),active: 15.8 µM,
c1ccc(Cn2c(-c3cccs3)nc3nc4ccccc4nc32)cc1,inactive,

Compound,Potency,"activity change, negative = inhibition"
CC1CC(C)CN(C(=O)C2CCCN(S(=O)(=O)c3cccc4nonc34)C2)C1 (stereo not given),inconclusive: 12.6 µM [decreasing],
COC(=O)c1cc(=O)[nH]c(=O)[nH]1,,inactive: -8.6% [at 11.4 µM]
CC(C)C(=O)c1c(C(C)C)nn2ccccc12,inconclusive: 39.8 µM [decreasing],
CCn1c(C(=O)N2CCC(C(=O)NCc3cccs3)CC2)cc2sccc21,inactive,
O=C(CSc1nnnn1C1CCCC1)Nc1ccc2c(c1)OCO2,inactive,
Cc1ccc(-n2nc(C)c3c2OC(N)=C(C#N)C3c2cccs2)cc1 (stereo not given),inconclusive: 31.6 µM [decreasing],
CCOc1ccccc1N1C(=O)CC(Nc2ccc(N3CCOCC3)cc2)C1=O (stereo not given),inconclusive: 3.98 µM [decreasing],
COc1ccc(-n2c(=O)cnc3cnc(N4CCOCC4)nc32)cc1,inactive,
N=c1c(C(=O)NCc2ccccc2)cc2c(=O)n3ccccc3nc2n1CCCN1CCOCC1,inconclusive: 2 µM [decreasing],
Cc1nc2c(c(=O)n1Cc1ccccc1Cl)c1nc3ccccc3nc1n2Cc1ccco1,active: 15.8 µM,
ClCCl,inactive,
O=C(O)c1nn(-c2ccc(Cl)cc2)c2c1C(=O)c1ccccc1C2=O,inconclusive: 3.16 µM [decreasing],
O=C(Nc1nnc(-c2ccccc2Cl)o1)c1cccnc1,inconclusive: 39.8 µM [decreasing],
COc1cccc(-c2csc(NC(C)=O)n2)c1,inactive,
NC(=O)C[C@H](NC(=O)Cc1ccc(O)cc1O)C(=O)O,inconclusive: 39.8 µM [decreasing],
CCCCOC(=O)Cn1c(=N)n(CCN2CCOCC2)c2ccccc21,inactive,
COc1cccc(NC(=O)c2oc3ccccc3c2NC(=O)c2ccc3c(c2)OCO3)c1,inactive,
CCCc1c(OCCCOc2ccc(OCC(=O)O)cc2)ccc(CC=O)c1O,inconclusive: 39.8 µM [decreasing],
CC(C)OC(=O)c1cn(-c2ccccc2)nc1-c1ccco1,inactive,
Cn1c(=O)c2c(nc(CN3CCN(Cc4ccccc4)CC3)n2Cc2ccccc2)n(C)c1=O,inconclusive: 31.6 µM [decreasing],
Cc1ccc(C(=O)Cn2c3c(sc2=N)CCCC3)cc1,inconclusive: 39.8 µM [decreasing],
CCCCN(CC)S(=O)(=O)c1ccc(C(=O)Nc2nnc(CSC)o2)cc1,inactive,

Compound,Potency,"activity change, negative = inhibition"
O=C1NC(c2cccs2)Nc2sc3c(c21)CCCC3 (stereo not given),active: 2.51 µM,
CN1CC2=Cc3ccccc3OC23Oc2ccccc2C=C3C1,inconclusive: 20 µM [decreasing],
O=C(Nc1ccc2nc3n(c(=O)c2c1)CCCCC3)c1ccccn1,inactive,
C[C@@H]1CCN=C(N)S1,inconclusive: 39.8 µM [decreasing],
O=C1C(c2ccncc2)=C(O)c2ccccc21,inconclusive: 39.8 µM [decreasing],
O=C(c1cc(C2CC2)on1)N1CCN(c2ccc(F)cc2)CC1,inconclusive: 15.8 µM [decreasing],
O=c1c(-c2ccccc2)nc2cnc(N3CCOCC3)nc2n1Cc1cccs1,inactive,
COc1cccc(Cn2c(=O)c(-c3cccc(C#N)c3)nc3cnc(N4CCN(C)CC4)nc32)c1,active: 3.16 µM,
COc1ccc(CNC(=O)c2cc3c(=O)n4ccccc4nc3n(Cc3ccco3)c2=N)cc1,inactive,
O=C(NCCCc1ccccc1)c1ccncc1,inconclusive: 39.8 µM [decreasing],
Cc1ccc(S(=O)(=O)c2cc3c(=O)n4ccccc4nc3n(CC3CCCO3)c2=N)cc1C (stereo not given),inconclusive: 2.51 µM [decreasing],
CCOc1ccc(CNc2ccc(N3CCCC3)cc2)cc1,active: 5.01 µM,
COC(=O)c1[nH]c2cc(OC)ccc2c1NC(=O)CCN1CCN(c2cccc(C)c2C)CC1,inconclusive: 7.94 µM [decreasing],
Cc1onc(-c2c(Cl)cccc2Cl)c1C(=O)Nc1ccc2c(c1)OCO2,active: 3.16 µM,
S=C(Nc1ccc2cn[nH]c2c1)Nc1ccc2cn[nH]c2c1,,inactive: -10.4% [at 11.4 µM]
NC(N)=NC(N)=Nc1ccccc1,inconclusive: 39.8 µM [decreasing],
C[C@H](Cc1ccc(O)c(O)c1)[C@@H](C)Cc1ccc(O)c(O)c1,inconclusive: 39.8 µM [decreasing],
COc1ccc2c(=O)cc(-c3ccc(O)cc3)oc2c1,inconclusive: 39.8 µM [decreasing],
COc1ccc(-c2coc3ccc(O[C@@H]4O[C@@H](COC(C)=O)[C@@H](OC(C)=O)[C@@H](OC(C)=O)[C@H]4OC(C)=O)c(OC(C)=O)c3c2=O)cc1,inconclusive: 39.8 µM [decreasing],
CCCc1cc(C(=O)Nc2cccc(Cl)c2)no1,inactive,
CCN1C(=O)c2cccc3c(N)ccc1c23,active: 25.1 µM,
N=c1nc(N2CCCCC2)cc(N)n1O,inconclusive: 39.8 µM [decreasing],

Compound,Potency,"activity change, negative = inhibition"
Cc1cccc2cc3c(nc12)SC(=NCC1CCCO1)N(Cc1ccco1)C3 (stereo not given),inconclusive: 39.8 µM [decreasing],
Cc1cc(C)n(-c2ncc(-c3ccccc3)nn2)n1,active: 25.1 µM,
O=C(Cc1cccs1)Nc1ccc(S(=O)(=O)N2CCCCC2)cc1,inconclusive: 31.6 µM [decreasing],
CCCN1CCCc2cc(CN)ccc21,inconclusive: 6.31 µM [decreasing],
COc1ccc(-c2nnc(SCC(=O)/C(C#N)=C(\C)N)o2)cc1,inactive,
COc1cc2c(cc1NC(=O)CSc1nnnn1-c1ccccc1)oc1ccccc12,inconclusive: 5.01 µM [decreasing],
CCc1nc2cc(C)nn2c2nc3ccccc3n12,inactive,
COc1cc(NC(=O)c2cnn3c(C)cc(C)nc23)c(OC)cc1Cl,inconclusive: 31.6 µM [decreasing],
CN(C)C(=O)c1ccc(-c2nc(NC3CCNCC3)c3ccccc3n2)cc1,inactive,
CN(c1ccccc1C(=O)Nc1ccc2c(c1)OCO2)S(C)(=O)=O,inconclusive: 31.6 µM [decreasing],
Cc1cccc(/C=C\c2ccccc2)n1,inconclusive: 39.8 µM [decreasing],
O=C1C(C=NCc2ccco2)=C(O)c2ccccc21,active: 25.1 µM,
CCN(CC)CCCCn1c(-c2ccccc2)nc2c(NC3CCCCC3)nc(C)nc21,inactive,
COc1cc(C2C(C#N)=C(C)NC3=C2C(=O)c2ccccc23)cc(OC)c1OC (stereo not given),inconclusive: 2 µM [decreasing],
CC1=C(\C=C/C(C)=C/C=C\C(C)=C\CO)C(C)(C)CCC1,inconclusive: 39.8 µM [decreasing],
CN(C)S(=O)(=O)N1CCc2ccccc2C1,inconclusive: 7.94 µM [decreasing],
Nc1nc2c(nc(Br)n2[C@@H]2O[C@H]3COP(=O)(O)O[C@H]3[C@@H]2O)c(=O)[nH]1,inconclusive: 39.8 µM [decreasing],
COc1cccc(N2CCN(Cc3coc4c(Cl)cc(Cl)cc4c3=O)CC2)c1,inconclusive: 25.1 µM [decreasing],
CN(C)CCCc1cc(C(=O)Nc2ccc(-c3ccncc3)cc2)ccc1O,inconclusive: 39.8 µM [decreasing],

# — PubChem BioAssay AID596 (National Center for Advancing Translational Sciences (NCATS), 2007)
